Measured values from paper PMC5892938.
The list shows a part of the results. At the low end of the ranking, values are background and their order means little.

Each sequence was assayed against GST-SBP-SLBP (stem-loop binding protein) (UniProt Q14493) (assay: targeted RNA Bind-n-Seq). Details: RBNS binding buffer: 25 mM Tris pH 7.5, 150 mM KCl, 3 mM MgCl2, 0.1% Tween, 0.5 mg/mL BSA, 1 mM DTT; 27 nM protein, 750 pM RNA pool; temperature not stated; high values mean tight binding.
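Note: DESeq read counts versus GST-SBP nonspecific binding control pulldown.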

Sequence | binding signal (log2 fold change)
GGUCACGUCUCAAUCAACUCACCCGAGGGGGGGAAAACCCCUUUACCCUCAUAAUCAACAGCUCGCAGUCAAG | 0.227
GGUCACGUCUCAAUCAACUCACAGGAGGGGGGGAAAACCCCUUUACCCUCAACAUCAACAGCUCGCAGUCAAG | -0.0703
GGUCACGUCUCAAUCAACUCAUUUCCCAGGGAAACCCCUGGUUUAUUCAACAGCUCGCAGUCAAG | 0.14
GGUCACGUCUCAAUCAACUCUACUCCAGGAGUUUCCUCCUGUUUACUCAACAGCUCGCAGUCAAG | 0.0753
GGUCACGUCUCAAUCAACUCAAUCCCCAGGGAAAGCCCUGGUUUUUUCAACAGCUCGCAGUCAAG | -0.163
GGUCACGUCUCAAUCAACUCAUCUUCAGGAGUUUGCUCCUGCAAUUUCAACAGCUCGCAGUCAAG | 0.0446
GGUCACGUCUCAAUCAACUCAUUCUCCAGGGAAAUCCCUGGUUAACUCAACAGCUCGCAGUCAAG | -0.0271
GGUCACGUCUCAAUCAACUCUACUUCAGGAGUUUACUCCUGCUAACUCAACAGCUCGCAGUCAAG | -0.11
GGUCACGUCUCAAUCAACUCUAUUUCCAGGGAAAUCCCUGGCGUUUUCAACAGCUCGCAGUCAAG | -0.115
GGUCACGUCUCAAUCAACUCAUUCUCAGGAGUUUGCUCCUGUAUAUUCAACAGCUCGCAGUCAAG | 0.111
GGUCACGUCUCAAUCAACUCAUUCCCAGGAGUUUGCUCCUGUAAUUUCAACAGCUCGCAGUCAAG | -0.203
GGUCACGUCUCAAUCAACUCGUCUUCAGGAGUUUUCUCCUGUAUAUUCAACAGCUCGCAGUCAAG | 0.0627
GGUCACGUCUCAAUCAACUCAAGUCCAGGAGUUUCCUCCUGUUUUCUCAACAGCUCGCAGUCAAG | 0.11
GGUCACGUCUCAAUCAACUCUACUUCAGGAGUUUACUCCUGCAAUUUCAACAGCUCGCAGUCAAG | 0.168
GGUCACGUCUCAAUCAACUCAAUUCCAGGAGUUUACUCCUGUUAUCUCAACAGCUCGCAGUCAAG | 0.128
GGUCACGUCUCAAUCAACUCUAAAGAGGGGGGGAAAACCCCUUUACCCUCACUUUCAACAGCUCGCAGUCAAG | -0.445
GGUCACGUCUCAAUCAACUCAUUCCCAGGAGUUUGCUCCUGCAUUCUCAACAGCUCGCAGUCAAG | 0.13
GGUCACGUCUCAAUCAACUCAACUCCAGGAGUUUACUCCUGCUAAUUCAACAGCUCGCAGUCAAG | 0.163
GGUCACGUCUCAAUCAACUCAUCGCCCAGGGAAAUCCCUGGUUUAUUCAACAGCUCGCAGUCAAG | 0.258
GGUCACGUCUCAAUCAACUCAUUCUCAGGAGUUUGCUCCUGCUAUUUCAACAGCUCGCAGUCAAG | -0.00768
GGUCACGUCUCAAUCAACUCAAUCGAGGGGGGGAAAACCCCUUUGCCCUCAUCAUCAACAGCUCGCAGUCAAG | -0.263
GGUCACGUCUCAAUCAACUCUACGCCAGGAGUUUCCUCCUGUAAAUUCAACAGCUCGCAGUCAAG | -0.125
GGUCACGUCUCAAUCAACUCUUCUUCAGGAGUUUACUCCUGUAUUCUCAACAGCUCGCAGUCAAG | 0.102
GGUCACGUCUCAAUCAACUCCUUCGAGGGGGGGAAAACCCCUUUACCCUCAAUUUCAACAGCUCGCAGUCAAG | 0.0185
GGUCACGUCUCAAUCAACUCUUUCUCAGGAGUUUCCUCCUGUUAACUCAACAGCUCGCAGUCAAG | 0.06

Sequence | binding signal (log2 fold change)
GGUCACGUCUCAAUCAACUCAUCUCCCAGGGAAAGCCCUGGCAUUCUCAACAGCUCGCAGUCAAG | -0.346
GGUCACGUCUCAAUCAACUCAAUCCCAGGAGUUUUCUCCUGUAUAGUCAACAGCUCGCAGUCAAG | 0.0769
GGUCACGUCUCAAUCAACUCUAUUCCCAGGGAAAGCCCUGGUUUUCUCAACAGCUCGCAGUCAAG | -0.149
GGUCACGUCUCAAUCAACUCCUACGAGGGGGGGAAAACCCCUUUACCCUCUUUUUCAACAGCUCGCAGUCAAG | -0.135
GGUCACGUCUCAAUCAACUCCCUAGAGGGGGGGAAAACCCCUUUACCCUCAACAUCAACAGCUCGCAGUCAAG | 0.0354
GGUCACGUCUCAAUCAACUCAUUAGAGGGGGGGAAAACCCCUUUACCCUCCAAUUCAACAGCUCGCAGUCAAG | -0.269
GGUCACGUCUCAAUCAACUCAGUCCCCAGGGAAAGCCCUGGCUAAUUCAACAGCUCGCAGUCAAG | -0.0871
GGUCACGUCUCAAUCAACUCAUCCCCCAGGGAAAUCCCUGGUUAUCUCAACAGCUCGCAGUCAAG | 0.152
GGUCACGUCUCAAUCAACUCUUCUCCCAGGGAAACCCCUGGCUUUCUCAACAGCUCGCAGUCAAG | 0.159
GGUCACGUCUCAAUCAACUCUUCCCCCAGGGAAAGCCCUGGCAUACUCAACAGCUCGCAGUCAAG | 0.118
GGUCACGUCUCAAUCAACUCUUUUUCAGGAGUUUCCUCCUGCUUUCUCAACAGCUCGCAGUCAAG | 0.021
GGUCACGUCUCAAUCAACUCUAUCCCCAGGGAAACCCCUGGUUUUCUCAACAGCUCGCAGUCAAG | -0.179
GGUCACGUCUCAAUCAACUCAAUUUCCAGGGAAAACCCUGGCUAAUUCAACAGCUCGCAGUCAAG | 0.0632
GGUCACGUCUCAAUCAACUCACACGAGGGGGGGAAAACCCCUUUACCCUCUUCAUCAACAGCUCGCAGUCAAG | -0.414
GGUCACGUCUCAAUCAACUCAGUCCCAGGAGUUUCCUCCUGUAUUCUCAACAGCUCGCAGUCAAG | -0.0717
GGUCACGUCUCAAUCAACUCUAAAGAGGGGGGGAAAACCCCUUUGCCCUCGAAUUCAACAGCUCGCAGUCAAG | -0.128
GGUCACGUCUCAAUCAACUCAAUUCCAGGAGUUUACUCCUGCAAACUCAACAGCUCGCAGUCAAG | -0.0164
GGUCACGUCUCAAUCAACUCAAAAGAGGGGGGGAAAACCCCUUUGCCCUCAUAUUCAACAGCUCGCAGUCAAG | -0.306
GGUCACGUCUCAAUCAACUCUAUUCCCAGGGAAAGCCCUGGCAUUUUCAACAGCUCGCAGUCAAG | 0.0411
GGUCACGUCUCAAUCAACUCUUCCUCCAGGGAAAACCCUGGUAUACUCAACAGCUCGCAGUCAAG | 0.192
GGUCACGUCUCAAUCAACUCAUCCUCAGGAGUUUCCUCCUGUAAAUUCAACAGCUCGCAGUCAAG | 0.101
GGUCACGUCUCAAUCAACUCUAUGGAGGGGGGGAAAACCCCUUUACCCUCACUUUCAACAGCUCGCAGUCAAG | -0.0741
GGUCACGUCUCAAUCAACUCAGUCCCAGGAGUUUCCUCCUGCUAUCUCAACAGCUCGCAGUCAAG | 0.0326
GGUCACGUCUCAAUCAACUCUAUCCCAGGAGUUUACUCCUGCAUACUCAACAGCUCGCAGUCAAG | 0.0227
GGUCACGUCUCAAUCAACUCAAAAGAGGGGGGGAAAACCCCUUUACCCUCACCAUCAACAGCUCGCAGUCAAG | 0.563

Sequence | binding signal (log2 fold change)
GGUCACGUCUCAAUCAACUCAUCUUCCAGGGAAAACCCUGGCUAUCUCAACAGCUCGCAGUCAAG | 0.178
GGUCACGUCUCAAUCAACUCAUUUCCCAGGGAAAGCCCUGGUAUAUUCAACAGCUCGCAGUCAAG | 0.0734
GGUCACGUCUCAAUCAACUCUUCUUCCAGGGAAAUCCCUGGUUUAUUCAACAGCUCGCAGUCAAG | -0.157
GGUCACGUCUCAAUCAACUCUAUCUCAGGAGUUUUCUCCUGUAUUUUCAACAGCUCGCAGUCAAG | 0.0293
GGUCACGUCUCAAUCAACUCUACUUCCAGGGAAAUCCCUGGUUUUCUCAACAGCUCGCAGUCAAG | -0.176
GGUCACGUCUCAAUCAACUCCUACGAGGGGGGGAAAACCCCUUUGCCCUCAAAUUCAACAGCUCGCAGUCAAG | -0.403
GGUCACGUCUCAAUCAACUCUUCUCCCAGGGAAAGCCCUGGCUUUCUCAACAGCUCGCAGUCAAG | 0.173
GGUCACGUCUCAAUCAACUCUUUUUCCAGGGAAACCCCUGGUUUUUUCAACAGCUCGCAGUCAAG | 0.0103
GGUCACGUCUCAAUCAACUCUUUCUCCAGGGAAACCCCUGGUAAACUCAACAGCUCGCAGUCAAG | -0.0496
GGUCACGUCUCAAUCAACUCAUUCGAGGGGGGGAAAACCCCUUUACCCUCACCAUCAACAGCUCGCAGUCAAG | 0.148
GGUCACGUCUCAAUCAACUCUACUCCCAGGGAAAUCCCUGGUAAAUUCAACAGCUCGCAGUCAAG | -0.0284
GGUCACGUCUCAAUCAACUCUAGUCCCAGGGAAAUCCCUGGUUAAUUCAACAGCUCGCAGUCAAG | -0.0457
GGUCACGUCUCAAUCAACUCUACUUCCAGGGAAAACCCUGGCGUUUUCAACAGCUCGCAGUCAAG | -0.105
GGUCACGUCUCAAUCAACUCAGUCCCAGGAGUUUCCUCCUGCUUAUUCAACAGCUCGCAGUCAAG | 0.0849
GGUCACGUCUCAAUCAACUCUAUAGAGGGGGGGAAAACCCCUUUGCCCUCAUUCUCAACAGCUCGCAGUCAAG | -0.173
GGUCACGUCUCAAUCAACUCUUUUCCCAGGGAAAACCCUGGCUAAUUCAACAGCUCGCAGUCAAG | -0.00131
GGUCACGUCUCAAUCAACUCUUAAGAGGGGGGGAAAACCCCUUUGCCCUCGAAUUCAACAGCUCGCAGUCAAG | -0.0626
GGUCACGUCUCAAUCAACUCACACGAGGGGGGGAAAACCCCUUUGCCCUCAUCAUCAACAGCUCGCAGUCAAG | -0.0419
GGUCACGUCUCAAUCAACUCAACUUCCAGGGAAACCCCUGGCAUAUUCAACAGCUCGCAGUCAAG | 0.259
GGUCACGUCUCAAUCAACUCAAUUCCCAGGGAAAUCCCUGGUAUUCUCAACAGCUCGCAGUCAAG | -0.109
GGUCACGUCUCAAUCAACUCUUCGCCAGGAGUUUUCUCCUGCAUAUUCAACAGCUCGCAGUCAAG | 0.000575
GGUCACGUCUCAAUCAACUCUACUUCCAGGGAAACCCCUGGUUUUCUCAACAGCUCGCAGUCAAG | -0.122
GGUCACGUCUCAAUCAACUCAUCUUCCAGGGAAAUCCCUGGCGUUUUCAACAGCUCGCAGUCAAG | -0.0822
GGUCACGUCUCAAUCAACUCUAUCUCAGGAGUUUUCUCCUGCUAUCUCAACAGCUCGCAGUCAAG | 0.12
